Measured values from US11242407B2, “High-affinity anti-MERTK antibodies and uses thereof” (Rgenix, Inc., priority 2019, dated 2022).

Legend:
SKMEL5 melanoma cells = experiment: Viability assay with z10 (CellTiter-Glo), SKMEL5; format: cell-based, human; conditions: SKMEL5, day 4, versus IgG control
CD14+ monocytes = experiment: Cytokine response of CD14+ monocytes; format: cell-based, human; conditions: 1 μg/mL, 24 hours, relative to control IgG
Description: (§1) PBMC-Derived Cell Culture and Macrophage Differentiation
(§2) The intermediate layer containing PBMCs was collected and cells washed with PBS with 2 mM EDTA three times. […] To measure cytokines, cell culture supernatants were collected and sent to Eve Technologies, Canada for Human Cytokine/Chemokine Array (HD42) analysis.

[1] = tested on: RPMI8226 multiple myeloma cells; experiment: Viability assay with z10 (CellTiter-Glo), RPMI8226; format: cell-based, human; conditions: RPMI8226, day 6, versus IgG control
MERTK [2] = molecular target: T1, MERTK (Homo sapiens, UniProt Q12866); experiment: Western blot of MERTK degradation in SKMEL5 cells; format: cell-based; set-up: MERTK expressing melanoma cells (SKMEL5) were incubated with increasing concentrations; host or cells: SKMEL5 human melanoma cells
T1 sequence (Q12866 21-999): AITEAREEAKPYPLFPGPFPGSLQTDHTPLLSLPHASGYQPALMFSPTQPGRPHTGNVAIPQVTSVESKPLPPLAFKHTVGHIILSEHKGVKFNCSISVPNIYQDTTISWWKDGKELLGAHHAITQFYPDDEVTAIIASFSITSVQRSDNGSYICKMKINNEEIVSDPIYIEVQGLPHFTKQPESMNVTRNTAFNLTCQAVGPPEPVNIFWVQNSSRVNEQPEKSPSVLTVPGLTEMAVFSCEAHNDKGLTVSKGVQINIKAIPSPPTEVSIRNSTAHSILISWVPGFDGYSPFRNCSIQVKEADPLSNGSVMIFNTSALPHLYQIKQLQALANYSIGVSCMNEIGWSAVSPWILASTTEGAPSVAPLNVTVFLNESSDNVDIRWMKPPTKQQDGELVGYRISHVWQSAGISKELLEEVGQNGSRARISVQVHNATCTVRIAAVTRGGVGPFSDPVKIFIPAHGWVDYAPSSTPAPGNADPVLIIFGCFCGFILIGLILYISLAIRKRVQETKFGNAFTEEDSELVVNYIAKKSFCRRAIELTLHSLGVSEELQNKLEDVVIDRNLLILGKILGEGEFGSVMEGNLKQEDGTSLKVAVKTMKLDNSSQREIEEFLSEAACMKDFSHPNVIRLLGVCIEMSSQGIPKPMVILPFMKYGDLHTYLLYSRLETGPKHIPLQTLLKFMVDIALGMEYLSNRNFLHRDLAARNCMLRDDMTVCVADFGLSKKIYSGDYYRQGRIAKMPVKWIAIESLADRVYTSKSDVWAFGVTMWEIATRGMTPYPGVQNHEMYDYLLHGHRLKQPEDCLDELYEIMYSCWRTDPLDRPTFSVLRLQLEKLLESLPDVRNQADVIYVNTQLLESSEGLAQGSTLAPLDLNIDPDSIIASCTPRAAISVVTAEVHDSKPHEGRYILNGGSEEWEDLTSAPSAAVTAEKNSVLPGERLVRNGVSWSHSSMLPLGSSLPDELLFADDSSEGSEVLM
Description: (§3) Whole-cell lysates were prepared in RIPA buffer (Sigma, 20-188) containing protease inhibitor (Sigma, 4693159001) and phosphatase inhibitor (Sigma, P2850 and P5726). Protein concentrations were measured using BCA Protein Assay Kit (ThermoFisher, 23225). Equal protein amounts were loaded on 4-20% Tris-Glycine gel (Bio-Rad, 4561094), then transferred to PVDF membranes (Bio-Rad, 1620177). After blocking with 5% BSA, membranes were probed with primary antibodies for 1 hr at room temperature. Bound antibodies were detected with HRP-conjugated secondary antibodies (Sigma, AP187P and AP181P) and visualized by ECL Western Blotting Substrate (ThermoFisher, 32106), using ChemiDoc Imaging Systems (Bio-Rad).

[3] = tested on: MERTK-expressing M2 macrophages
[4] = tested on: Gas6-induced AKT phosphorylation; experiment: Gas6-induced AKT phosphorylation in SKMEL5 cells (Western blot); format: cell-based, human; conditions: 0.3 μg/mL for 2 hours, then Gas6 200 nM for 10 minutes
Description: as §3

MERTK [5] = molecular target: T1, MERTK; experiment: Internalization assay (pHrodo-labeled z10, SKMEL5); format: cell-based; set-up: MERTK expressing melanoma cells (SKMEL5) were incubated with increasing concentrations; host or cells: SKMEL5 human melanoma cells; conditions: SKMEL5 cells, after 24 h of incubation
Description: Z10 and human IgG control (R&D Systems) were labeled with pHrodo Red, a pH-sensitive dye, using pHrodo Red Microscale Labeling Kit (ThermoFisher, Cat #) according to the manufacturer's instructions. Internalization of antibody was determined by flow cytometry detecting pHrodo fluorescence, which is minimal at neutral pH and maximal in acidic environments, such as the lysosomes. […] The cells were harvested with Cell Dissociation Buffer (ThermoFisher), washed twice, strained through a 70 μm filter, and resuspended in 200 μL FACS buffer (2% BSA, 10 mM EDTA, 25 mM HEPES, 0.1% sodium azide in Ca/Mg-free PBS) containing 10% human AB serum. Cells were sequentially stained with BV421-conjugated antibodies against MERTK for 20 min on ice, and then stained with Fixable Viability Dye (eFluor 780) for 20 min on ice. 5,000 event multispectral images were acquired for each sample by ImageStream Imaging Flow Cytometer (Aminis). Single color control samples were used to create a compensation matrix, and resulting compensated data were analyzed by IDEA software (Amnis) and GraphPad Prism.

M2 macrophages = experiment: Cytokine response of M2 macrophages; format: cell-based, human; conditions: 1 μg/mL, 48 hours, relative to control IgG
Description: as §1, §2

human MERTK levels in the total lysate (MERTK [2]; 0.3 μg/mL for 2 hours, Gas6 experiment): decreased | degradation of human MERTK (MERTK [2]; after 4 hours, 0.3 μg/mL): substantial degradation | degradation of human MERTK (MERTK [2]; after 24 hours, 0, 0.03, 0.1, 0.3 and 1 μg/mL): substantial degradation | MERTK signal detected on the cell surface (MERTK [5]): < 20%
B1: z10: humanized anti-MERTK antibody; heavy chain SEQ ID NO: 112, light chain SEQ ID NO: 113 (antibody)
heavy: QVQLVQSGAEVKKPGASVKVSCKASGYTFTNYGMNWVRQAPGQGLEWMGWINTYTGEPTYADDFKGRVTFTTDTSTSTAYMELRSLRSDDMAVYYCARKSTVVSRYFDVWGQGTTVTVSSASTKGPSVFPLAPSSKSTSGGTAALGCLVKDYFPEPVTVSWNSGALTSGVHTFPAVLQSSGLYSLSSVVTVPSSSLGTQTYICNVNHKPSNTKVDKRV[human IgG1 Fc omitted]
light: DIQMTQSPSFLSASVGDRVTITCKASQDVGDAVTWYQQKPGKAPKLLIYWASTRHTGVPDRFSGSGSGTDFTLTISSLQPEDFATYYCQQYRSYPLTFGQGTKLEIKRTVAAPSVFIFPPSDEQLKSGTASVVCLLNNFYPREAKVQWKVDNALQSGNSQESVTEQDSKDSTYSLSSTLTLSKADYEKHKVYACEVTHQGLSSPVTKSFNRGEC
modifications: Antibody z10 Heavy Chain; Antibody z10/z11/z13 Light Chain
cell survival (viability, CellTiter-Glo 2.0) (SKMEL5 melanoma cells): inhibits cell survival | cytokine responses (CD14+ monocytes): induced cytokine responses | cell survival (viability, CellTiter-Glo 2.0) [1]: inhibits cell survival | viability of M2 macrophages (CellTiter-Glo 2.0) [3]: neither z10 nor z10-MMAE nor z10-SN-38 nor the MERTK inhibitor UNC1062 affect the viability | Gas6-induced AKT phosphorylation [4]: prevents Gas6-induced AKT phosphorylation | location of the MERTK signal (MERTK [5]): the majority of the MERTK signal is found in the lysosome | cytokine responses (M2 macrophages): induced cytokine responses
